In PubChem BioAssay AID504332 (National Center for Advancing Translational Sciences (NCATS), 2011):
Several values for one entry are separate records, joined by “and”; a condition that tells them apart may be missing. Equal entries are not always repeated. In all, about 350,000 compounds went through this assay and about 31,000 (8.9%) were called active. This list was built around the results that the source calls inconclusive (neither active nor inactive); the mix of calls is not that of the screen. Calls follow the shape of the dose curve; as a rule, active = well fitted inhibition curve with a large enough effect; inconclusive = small, poorly fitted or top-dose-only effect; inactive = no such curve, though single readings can be large or run the other way. A potency beside an inconclusive call is a rough fit, not a confirmed value.

The molecules below were run against Histone-lysine N-methyltransferase EHMT2 (Homo sapiens) (UniProt Q96KQ7) (assay: qHTS Assay for Inhibitors of Histone Lysine Methyltransferase G9a). Settings: G9a H3K9 monomethylation, AlphaScreen, 2 h; activity, negative = inhibition: at 59 µM (top of the series) unless noted.
Chain of UniProt Q96KQ7 (Q96KQ7 whole entry, looked up): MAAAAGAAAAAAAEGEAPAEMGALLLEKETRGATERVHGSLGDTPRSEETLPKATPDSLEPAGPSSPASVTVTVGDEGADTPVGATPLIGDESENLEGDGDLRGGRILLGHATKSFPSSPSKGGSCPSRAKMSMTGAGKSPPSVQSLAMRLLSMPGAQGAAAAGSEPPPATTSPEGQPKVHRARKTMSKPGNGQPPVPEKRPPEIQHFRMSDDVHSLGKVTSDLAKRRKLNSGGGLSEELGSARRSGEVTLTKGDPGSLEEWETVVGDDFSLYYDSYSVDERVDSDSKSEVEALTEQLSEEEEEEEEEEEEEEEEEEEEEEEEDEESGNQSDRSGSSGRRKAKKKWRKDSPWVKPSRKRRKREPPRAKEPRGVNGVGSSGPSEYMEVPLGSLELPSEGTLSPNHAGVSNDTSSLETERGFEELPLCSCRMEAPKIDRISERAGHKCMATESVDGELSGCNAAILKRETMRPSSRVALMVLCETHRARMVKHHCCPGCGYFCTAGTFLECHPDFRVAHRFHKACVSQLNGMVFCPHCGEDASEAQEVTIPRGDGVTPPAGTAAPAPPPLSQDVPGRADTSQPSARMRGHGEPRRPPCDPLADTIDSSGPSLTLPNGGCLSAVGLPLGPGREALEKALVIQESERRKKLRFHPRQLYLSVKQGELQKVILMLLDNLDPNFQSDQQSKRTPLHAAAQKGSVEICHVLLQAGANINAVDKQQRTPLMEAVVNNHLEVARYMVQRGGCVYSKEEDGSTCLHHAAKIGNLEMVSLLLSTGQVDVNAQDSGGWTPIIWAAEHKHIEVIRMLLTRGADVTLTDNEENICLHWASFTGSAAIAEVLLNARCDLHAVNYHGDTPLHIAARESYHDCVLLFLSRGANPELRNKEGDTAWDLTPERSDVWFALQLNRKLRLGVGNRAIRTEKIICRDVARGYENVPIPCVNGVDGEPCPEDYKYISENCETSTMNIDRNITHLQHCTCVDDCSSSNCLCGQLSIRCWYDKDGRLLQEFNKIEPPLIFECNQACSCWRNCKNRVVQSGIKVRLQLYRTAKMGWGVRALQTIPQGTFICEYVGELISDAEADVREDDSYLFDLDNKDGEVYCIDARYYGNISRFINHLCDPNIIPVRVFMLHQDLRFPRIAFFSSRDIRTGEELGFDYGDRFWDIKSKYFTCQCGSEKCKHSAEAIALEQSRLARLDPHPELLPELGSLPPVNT
How it was run: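 Quantitative HTS format: methyltransferase activity on a biotin-tagged H3K9 peptide is measured by AlphaScreen, using a rabbit anti-monomethyl-H3K9 antibody with streptavidin donor and anti-IgG acceptor beads. Final levels are 20 nM enzyme, 500 nM peptide, 20 uM SAM; 2 h RT.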
% is scaled to controls: 0 for no effect and ±100 for the full control effect; potency is read from the fitted curve at half-maximal effect; tags tell the direction and shape of the fitted curve.
Also: nearly all actives have a fitted effect of over 75% in size.

SMILES	Potency	activity, negative = inhibition
C=CCn1c(C)cc(C(=O)COC(=O)c2ccc(N)c([N+](=O)[O-])c2)c1C	inconclusive: 28.2 µM [inhibitor, single point]	
COc1ccc(C(=O)COC(=O)Cn2[nH]c(=O)c3ccccc3c2=O)c(OC)c1	inconclusive: 89.1 µM [inhibitor, single point]	
CCOc1cc(S(=O)(=O)NCc2ccco2)c(OCC)cc1-n1cnnn1	inconclusive: 79.4 µM [inhibitor, single point]	
Cc1ccc2c(c1)N(CC(=O)NCCCN1CC(C)CC(C)C1)C(=O)c1cccnc1O2 (centres undefined)		inactive: 15.7% [at 102 µM]
COc1ccc(/C=N/N2CCOCC2)cc1Cn1cc([N+](=O)[O-])cn1		inactive: -6.04% [at 12.7 µM]
CN(C)CCCOC(=O)COc1ccc(C(C)(C)C)cc1		inactive: -40.3%
CCN(CC(=O)Nc1ccc2c(c1)CCC2)Cc1nc2ccccc2c(=O)[nH]1	inconclusive: 39.8 µM [inhibitor, single point]	
COc1cccc(NCc2nnc(SCC(=O)NC3CCS(=O)(=O)C3)n2C2CCCCC2)c1 (centres undefined)	inconclusive: 79.4 µM [inhibitor, single point]	
Nc1ccc(N2CCN(c3ccc(Cl)c(Cl)c3)CC2)cc1	inconclusive: 8.91 µM [inhibitor, partial curve, poor fit]	
CCCOc1ccc(Cl)cc1/C=C1/C(=O)ON=C1C	active: 31.6 µM	
O=C(CS(=O)(=O)c1cccc2nsnc12)NCc1ccccc1Cl		inactive: 0.0507%
CN(C(=O)CSc1nc(O)cc(=O)n1-c1ccccc1F)c1ccccc1	inconclusive: 79.4 µM [inhibitor, partial curve, poor fit]	
CN(C)S(=O)(=O)N1CCC(Oc2ccc(C(=O)N3CCCCCCC3)cc2)CC1	inconclusive: 79.4 µM [inhibitor, partial curve, poor fit]	
O=c1c(NCc2cccs2)nccn1-c1ccccc1	inconclusive: 39.8 µM [inhibitor, partial curve, poor fit]	
Cc1ccccc1OCC(=O)NNC(=O)c1ccoc1C	inconclusive: 35.5 µM [inhibitor, single point]	
CN1CCN(CC(=O)Nc2nnc(-c3cccs3)s2)CC1	inconclusive: 39.8 µM [inhibitor, single point]	
Cc1csc(NC(=O)CSc2nnc(Cc3cccn3C)n2CCc2ccccc2)n1	active: 44.7 µM	
COC(=O)Cc1c(C)c2ccc(OCc3nn[nH]n3)cc2oc1=O	inconclusive: 50.1 µM [inhibitor, partial curve, poor fit]	
CCc1nnc(NC(=O)CSc2nnc(-c3ccncc3)n2C)s1	inconclusive: 35.5 µM [inhibitor, single point]	
COc1cccc(Oc2ccc(N/C=C/C(=O)C(C)(C)C)cc2)c1	inconclusive: 50.1 µM [inhibitor, partial curve, poor fit]	
CCC(=NC(CC)CO)C1=C(O)CC(C)(C)CC1=O (centres undefined)	inconclusive: 89.1 µM [inhibitor, single point]	
Cn1c(SCc2ccc(Br)cc2)nc2c(c1=O)SCC2	inconclusive: 44.7 µM [inhibitor, partial curve, poor fit]	

SMILES	Potency	activity, negative = inhibition
O=S(=O)(Nc1ccccc1O)c1ccc(Cl)nc1	inconclusive: 89.1 µM [inhibitor, single point]	
COCCNC(=O)C1CCCN(S(=O)(=O)c2cccc3nsnc23)C1 (centres undefined)		inactive: 8.29% [at 102 µM]
CC(=O)Nc1ccccc1C(=O)C(=O)Nc1ccc(C)c(F)c1	inconclusive: 3.16 µM [inhibitor, partial curve, poor fit]	
CC1CCN(c2cc(N(C)CCO)c([N+](=O)[O-])c3nonc23)CC1	inconclusive: 79.4 µM [inhibitor, partial curve, poor fit]	
CN1CCN(NC(=O)/C=C/c2cccc([N+](=O)[O-])c2)CC1		inactive: -3.87% [at 102 µM]
O=C(Nc1nc(=O)n(C(=O)c2cccc(C(F)(F)F)c2)s1)c1ccccc1		inconclusive: -70.8% [inhibitor]
Cc1ccc(NC(=O)c2ccc(Br)o2)cc1S(=O)(=O)N(C)C	inconclusive: 89.1 µM [inhibitor, single point]	
Cc1ccn2c(=O)nc(SCC(=O)NCc3ccccc3Cl)nc2c1	inconclusive: 0.631 µM [inhibitor, full curve, poor fit]	
COc1ccc(NC(=O)CSc2nnc(-c3ccccc3C)n2N)cc1	active: 50.1 µM	
CCCCn1c(N)c(N(CCOC)C(=O)CSCc2ccc(Cl)c(Cl)c2)c(=O)[nH]c1=O	active: 56.2 µM	
Cc1cc(C(=O)CN2CC(C)OC(C)C2)c(C)n1-c1ccccc1 (centres undefined)	inconclusive: 35.5 µM [inhibitor, single point]	
C/C(N)=C(/C#N)C(=O)CSc1nc2cc(Cl)ccc2s1	active: 14.1 µM	
CCC(C)C(=O)N1c2ccccc2C(=C2SC(C(=O)OC)=C(C(=O)OC)S2)C(=S)C1(C)C (centres undefined)		inconclusive: -160% [inhibitor]
O=C(O)/C=C/C(=O)Nc1ccc(-c2ccccc2)cc1	inconclusive: 56.2 µM [inhibitor, partial curve, poor fit] and inconclusive: 50.1 µM [inhibitor, partial curve]	
CCn1cc(C2=NC(CC(C)C)CO2)c2ccccc21 (centres undefined)		inactive: 159% [at 102 µM]
COc1cc(/C=C2\SC(=S)N(NC(=O)c3ccccc3OC)C2=O)ccc1O	active: 15.8 µM	
CCOc1ccccc1NC(=S)Nc1ccc2cn[nH]c2c1		inconclusive: -60.9% [inhibitor]
CCCN1CCOC(CC(=O)Nc2ccc([N+](=O)[O-])cc2)C1=O (centres undefined)	active: 20 µM	
COc1ccc2nc(NC(=O)CSc3n[nH]c(N)n3)sc2c1	active: 56.2 µM	
Cc1ccc(NC(=O)c2oc3ccc(S(=O)(=O)N4CCCCC4)cc3c2C)c(C)c1	inconclusive: 6.31 µM [inhibitor, single point]	
O=C(Nc1cccnc1Cl)c1cc(-c2ccc(Br)cc2)on1		inactive: 13.1% [at 102 µM]
Cc1ccc(-c2nnc3n2N=C(c2ccc(Br)cc2)CS3)cc1	inconclusive: 79.4 µM [inhibitor, single point]	
